# From the supplement of paper PMC3724861
# Some of the results follow.
# System: T1, Caupolican (Caup) homeodomain DNA-binding domain
# T1 sequence: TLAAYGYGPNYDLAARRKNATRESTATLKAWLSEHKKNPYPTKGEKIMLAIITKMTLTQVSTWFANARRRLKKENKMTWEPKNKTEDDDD
# Experiment: PBM E-score (8-mer, recovered from the published 9-mer minima) (E-score (dimensionless, -0.5 to 0.5)); Drosophila protein; higher = stronger relative binding preference, active = 0.31 or more
# Summary of the method: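 Caup's homeodomain DNA-binding domain (residues 214-303) was made by in vitro transcription and translation and applied at 100 nM to custom-designed protein binding microarrays. Each value is an enrichment score that gives relative binding preference for a short DNA word, with higher meaning stronger. The 8-mer values were recovered from published 9-mer scores, each of which was the minimum of its two constituent 8-mer scores. A cutoff of 0.31 marks candidate sites.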
row,Sequence,PBM E-score
1,CATCGCGC,inactive: -0.106
2,GCCTACGC,inactive: -0.053
3,CTCGCAAC,inactive: -0.00416
4,AATAATAG,inactive: 0.132
5,CTTGACGA,inactive: 0.0272
6,GATACCAA,inactive: 0.123
7,CGGGAGAG,inactive: -0.144
8,ACATTGCC,inactive: 0.105
9,CGAGTCGA,inactive: -0.00487
10,TCGTTTCA,inactive: 0.0308
11,AAACAGTC,inactive: -0.0421
12,CAGTATAA,inactive: 0.0774
13,GCCTAGAC,inactive: -0.11
14,GATACTCC,inactive: -0.017
15,AGCGAATC,inactive: 0.0333
16,GAGACACA,inactive: 0.167
17,AAAAACTA,inactive: 0.122
18,ACTTCAAC,inactive: 0.171
19,GTCGCCGA,inactive: -0.0224
20,GCAGTAAC,inactive: 0.0444
21,AACCCGTC,inactive: -0.0941
22,ATACTCTA,inactive: 0.092
23,CAGTAATG,inactive: 0.115
24,CGTGTGGA,inactive: -0.0862
25,TAGCCGAA,inactive: -0.0891

row,Sequence,PBM E-score
1,TACCGCTA,inactive: 0.068
2,TCACTAGA,inactive: 0.0014
3,CTTAGTCC,inactive: -0.0895
4,AGACACTC,inactive: -0.00058
5,AGAACCGC,inactive: -0.0708
6,AGTAACTA,inactive: 0.154
7,CAAATAAG,inactive: -0.0125
8,ACACCCAC,inactive: 0.0658
9,CCTCGGCC,inactive: -0.233
10,CGTTATAC,inactive: 0.0592
11,TTAAAGAA,inactive: 0.0808
12,CATCCGGC,inactive: -0.147
13,CATTCAAC,inactive: 0.0807
14,ATTAGATG,inactive: 0.235
15,CGGGCGCC,inactive: -0.242
16,ATGCCAGA,≥ -0.00722
17,AGTTGGCC,inactive: -0.159
18,GCTTCCAC,inactive: -0.182
19,ACCAAACT,inactive: 0.024
20,ACCATGAA,inactive: 0.0242
21,GTGCATAA,inactive: 0.0622
22,GTGGTCCA,inactive: -0.00936
23,ATATATCA,inactive: 0.169
24,GCCCAAGA,inactive: -0.14
25,AAGATCCT,inactive: 0.0178

row,Sequence,PBM E-score
1,AATTGAGG,inactive: -0.075
2,ACAGATCT,inactive: 0.0481
3,AAGGTCGC,inactive: -0.147
4,CTATTCAG,inactive: 0.0806
5,AAGGCAAC,inactive: 0.0408
6,CAGATTTA,inactive: 0.096
7,ACGGGACA,inactive: 0.123
8,ACCGCCTC,inactive: -0.212
9,AAAGATAC,inactive: 0.0695
10,GCTGTAAC,inactive: 0.179
11,AATCACCC,inactive: 0.00243
12,AGAGGGGC,inactive: -0.337
13,AATAAATA,inactive: 0.202
14,CGCAGAGA,inactive: -0.0806
15,GGTGAAAA,inactive: -0.0222
16,GCTAGTCA,inactive: 0.0294
17,GTGGTGTA,inactive: 0.271
18,AGCGACTC,inactive: -0.0591
19,AGAAGCCG,inactive: -0.154
20,CCCAAGAG,inactive: -0.149
21,AGGGCACC,inactive: -0.242
22,TGAGTTAA,inactive: 0.0401
23,AATAAAGG,inactive: -0.11
24,AGCTCCTG,inactive: -0.118
25,ATGCAGTC,inactive: 0.0866

row,Sequence,PBM E-score
1,ACAACAAT,active: 0.347
2,GATCTCCC,inactive: -0.189
3,GGCGCTCA,inactive: -0.152
4,CTAACAGA,inactive: 0.0773
5,AGCTATTC,inactive: -0.0818
6,ACTTGGCT,inactive: -0.0889
7,CACCCGAG,inactive: -0.179
8,CCTATAAC,inactive: 0.0905
9,CCGAGTAC,inactive: -0.00195
10,GGCGGCGA,inactive: -0.175
11,AGAGCATC,inactive: 0.0055
12,GTACAATA,inactive: 0.306
13,TACGGCGA,inactive: 0.00232
14,CAGGGCAA,inactive: -0.0283
15,AGTCAACA,inactive: 0.263
16,ACTCCCTG,inactive: -0.0389
17,GGGGGCAA,inactive: -0.254
18,CAGACCTC,inactive: -0.196
19,AAGTCGTA,≥ 0.108
20,ATATATCG,inactive: 0.0746
21,TGAATACA,inactive: 0.211
22,AAAAGTCT,inactive: -0.00119
23,AACGTAAC,inactive: 0.171
24,CATCAAGA,inactive: 0.0686
25,AGCGACAG,inactive: 0.105

row,Sequence,PBM E-score
1,AGCATGGA,inactive: 0.0568
2,CAAAATAG,inactive: -0.0389
3,GTCTACTA,inactive: 0.138
4,ACAACGGC,inactive: 0.0872
5,ATGATGAG,inactive: 0.0566
6,CGCACCCA,inactive: -0.106
7,CAGCACGC,inactive: -0.0923
8,CATGCGGA,inactive: -0.166
9,CCAGGATA,inactive: 0.0505
10,ACACACAG,inactive: 0.142
11,AGTGCACC,inactive: -0.0525
12,AAGGCGGA,inactive: -0.159
13,GTAGTTGA,inactive: 0.104
14,CGTCGACG,inactive: -0.16
15,AAGGGAGG,inactive: -0.134
16,AGTGCATC,inactive: 0.024
17,ACAACCCA,inactive: 0.208
18,AAATGACG,inactive: 0.171
19,CGAGGTAG,inactive: -0.114
20,CTCAACGC,inactive: -0.184
21,AACCTGAG,inactive: -0.0934
22,GCACCTCA,inactive: -0.00871
23,CATCTTAA,inactive: 0.0716
24,CGCTTCAG,inactive: -0.124
25,CCCACGGC,inactive: -0.284

row,Sequence,PBM E-score
1,ATGCACGG,inactive: -0.0563
2,CCCAAACG,inactive: -0.0329
3,GAAAGAGC,inactive: -0.123
4,AGGGTCTA,inactive: -0.154
5,GAATATGA,inactive: 0.0203
6,GCAGGCCA,inactive: -0.136
7,CTTTTACA,inactive: 0.255
8,ACATGAGG,inactive: 0.228
9,CATTAGTC,inactive: 0.00044
10,ACCGTTGG,inactive: 0.00243
11,ACGGCGCA,≥ -0.079
12,GGTGTAAC,inactive: 0.205
13,CGAAAGAC,inactive: -0.0666
14,ATTCAGCC,inactive: -0.121
15,ACGGGGTC,inactive: -0.189
16,ATCCCACA,inactive: -0.00373
17,CAAGGAAG,inactive: 0.0116
18,GAGATACC,inactive: 0.00712
19,ATCCCTTG,inactive: -0.0111
20,GTAGGGCA,inactive: -0.058
21,TGAGTGAA,inactive: -0.0013
22,GATGTCCA,inactive: 0.195
23,GCCGGACC,inactive: -0.294
24,CTTGTATC,active: 0.34
25,CACCTCAC,inactive: 0.021

row,Sequence,PBM E-score
1,ATCAGAAG,inactive: -0.0272
2,AGGCAGCG,inactive: -0.143
3,CTGACCTC,inactive: -0.0972
4,AGTAGTTG,inactive: 0.0486
5,GTGAAAGA,inactive: -0.0128
6,TACCGCGA,≥ -0.00355
7,AAATCGTG,inactive: 0.108
8,AAAAAACG,inactive: 0.0324
9,CAGATTCC,inactive: -0.0442
10,CCGTTAGC,inactive: -0.0957
11,CGCTAATC,inactive: -0.0282
12,AAGCAACT,inactive: 0.0512
13,CTATCGCC,inactive: -0.063
14,CGGTGATA,inactive: 0.145
15,AACCTCCC,inactive: -0.0854
16,GGAATTTA,inactive: 0.0587
17,GCGGATGA,inactive: -0.0607
18,CTGATGAC,inactive: 0.0472
19,ACCAATCT,inactive: 0.0871
20,GTGGATCA,inactive: -0.0757
21,ACACCTCC,inactive: 0.0827
22,AGGCGTTG,inactive: -0.0379
23,CATGAGAG,inactive: -0.0256
24,ACCCTCGC,inactive: -0.266
25,ATACAATA,inactive: 0.26

row,Sequence,PBM E-score
1,CGTGCCCA,inactive: -0.113
2,TACGGAAA,inactive: 0.00457
3,AACATCAG,inactive: 0.231
4,CACGGCAA,inactive: 0.0903
5,CACAGGGC,inactive: -0.153
6,AAAGCCAT,≥ 0.0303
7,CGCATTCC,inactive: -0.165
8,ATCTCAGC,inactive: -0.0577
9,TACCGACA,inactive: 0.182
10,AAATGGTC,inactive: 0.0567
11,GACTACAC,active: 0.33
12,ATCGTTTG,inactive: 0.0493
13,AATGATAG,inactive: 0.11
14,GCCAAAGC,inactive: -0.255
15,ACCCTAAC,inactive: -0.0282
16,GTGAGTGA,inactive: -0.0384
17,ACTAAGCG,inactive: -0.0861
18,ATCGCAGA,≥ 0.0242
19,ACCTAAAT,inactive: -0.00381
20,CACGGATC,inactive: 0.00878
21,GCACCTGC,inactive: -0.269
22,ATAGTGTG,inactive: 0.0943
23,GAACCAGC,inactive: 0.032
24,CTAACTTA,inactive: 0.104
25,CTGTTAGA,inactive: 0.105

row,Sequence,PBM E-score
1,CTTCCTAC,inactive: -0.123
2,GGATAGCA,inactive: -0.0195
3,GGTCAGGA,inactive: -0.164
4,GGGTCTAC,inactive: -0.106
5,CTTCAGTA,inactive: -0.00156
6,CTGCAGCA,inactive: -0.0336
7,CGCCGCCC,inactive: -0.327
8,CAGGCAAG,inactive: 0.00925
9,ATCTGCGC,inactive: -0.0684
10,ACGCGCTA,inactive: -0.00798
11,GCATGCAA,inactive: 0.0861
12,TAAAACCA,≥ 0.102
13,CCAGGTCG,inactive: -0.0728
14,AAACACTG,inactive: 0.123
15,AACGGTCT,inactive: -0.0251
16,TGGTGAAA,inactive: 0.0422
17,GGACGCCC,inactive: -0.286
18,CAGGTCAA,inactive: -0.0852
19,GAGGAAAA,inactive: -0.0811
20,CGATCATA,inactive: 0.0822
21,AAGGTAGG,inactive: -0.0549
22,ATTCTAGA,inactive: 0.0185
